From PubChem BioAssay AID1240 (Sanford-Burnham Center for Chemical Genomics, 2008) come the findings set out here.

Screen size: about 50,000 compounds; about 800 (1.6%) showed an effect of 50% or more. The list shows a part of the results.

For this test, the target named is Bcl-2-like protein 10 (Homo sapiens) (UniProt Q9HD36). Kind of test: TR3 peptide-Bcl-B binding displacers, biochemical primary FP assay, phenotype converters (AID 1240).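 Further: 0% = Bcl-B with tracer peptide and DMSO and 100% = tracer peptide lacking Bcl-B.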 The note with it: GST-Bcl-B / FITC-TR3 peptide fluorescence polarization; stronger effect = higher value; compound at 3.75 mg/L.
Sequence of UniProt Q9HD36 (Q9HD36 whole entry, looked up): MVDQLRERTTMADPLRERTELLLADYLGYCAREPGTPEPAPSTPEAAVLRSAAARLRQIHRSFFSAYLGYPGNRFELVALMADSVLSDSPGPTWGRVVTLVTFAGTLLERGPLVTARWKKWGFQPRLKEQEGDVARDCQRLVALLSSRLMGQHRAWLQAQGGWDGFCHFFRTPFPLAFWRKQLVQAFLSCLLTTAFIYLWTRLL
Take `O=C(CC1c2ccccc2Oc2ccccc21)Nc1ccccc1F`: the displacement was -1.1%.

Consider `CC(CCc1ccccc1)NC(=O)C1(c2ccccc2)CCOCC1` (configuration not stated), for which the displacement is -8.3%.

For `O=C1c2cccc3cccc(c23)C(=O)N1CCOCc1ccccc1`, the displacement is -4.3%.

Turning to `Cn1cc(/C=C/c2nc3ccccc3c(=O)n2-c2ccccc2[N+](=O)[O-])c2ccccc21`, the displacement is -4.1%.

In the case of `CCN(CC)C(=O)c1sc(NC(=O)c2cc3ccccc3oc2=O)c(C#N)c1C`, the displacement amounted to 39.8%.

As to `O=C(O)CCCCCNC(=O)c1ccccc1O`, the displacement worked out at 20.5%.

Turning to `O=C(O)CN1C(=O)/C(=C/c2ccc(OC(=O)c3ccccc3I)cc2)SC1=S`, the displacement is -2.4%.

For the molecule `O=c1oc(-c2ccco2)nc2c1cnn2-c1ccccc1`, the displacement is 6.5%.

For the molecule `O=C1CSc2ccc([N+](=O)[O-])cc2N1Cc1ccccc1F`, the displacement is -92%.

On to `N/C(=N\OC(=O)COc1ccccc1)c1cccnc1`, for which the displacement was 7.1%.

Regarding `O=C(/C=C/c1ccccc1)NC(c1ccccc1)c1ccccc1`, the displacement turned out to be 2.5%.

On to `CC1=C(C#N)c2nc(N)c(C#N)c(C)c2/C1=C\c1ccc(-c2cccc(Cl)c2)o1`, for which the displacement is -3.2%.

Turning to `CC(=O)SC(CC(=O)c1ccccc1)c1cn(-c2ccccc2)nc1-c1ccc(C)cc1` (configuration not stated), the displacement turned out to be 5.2%.

Consider `COC(=O)c1ccc(NC(=O)C(C)N2C(=O)c3cccc4cccc(c34)C2=O)cc1` (configuration not stated), for which the displacement was 13.7%.

For the molecule `O=c1oc2cc(OC/C=C/c3ccccc3)ccc2c2c1CCCC2`, the displacement was determined as 0%.

As for `O=C(Nc1ccc(I)cc1Cl)c1ccc(-c2cccc([N+](=O)[O-])c2)o1`, the displacement worked out at 1%.

`O=C(NCCNc1ccccc1[N+](=O)[O-])c1ccc(Br)cc1`: the displacement came out at 16.8%.

For `COC(=O)c1cc(NC(=O)/C=C/c2ccc(OC)cc2)cc(C(=O)OC)c1`, the displacement is 7.5%.

Regarding `O=C(CCc1ccccc1)N1N=C(c2ccc(Br)cc2)CC1(O)C(F)(F)F` (configuration not stated), the displacement is 8.5%.

For `COc1ccc(/C=N/N2CCN(Cc3cccc4ccccc34)CC2)c(OC)c1`, the displacement worked out at 0.4%.

For the molecule `CCOC(=O)c1c(NC(=O)Cc2cccs2)sc(C(=O)Nc2ccccc2F)c1C`, the displacement stood at 39%.

As for `CCOC(=O)C1CCN(CN2C(=O)C(=O)c3cc(Br)ccc32)CC1`, the displacement turned out to be 0.8%.

On to `COc1cccc(NC(=O)/C=C(\C(=O)O)c2ccc(Cl)cc2)c1`, for which the displacement was -7%.

`CCOC(=O)C1=C(C)N=c2s/c(=C/c3ccc(C)cc3)c(=O)n2C1c1ccccc1` (configuration not stated): the displacement was 2.5%.

For the molecule `COc1ccc(C2CC(C(F)(F)F)n3nc(C(=O)Nc4cc(C(F)(F)F)ccc4Cl)c(Cl)c3N2)cc1OC` (configuration not stated), the displacement was determined as 5.4%.

Consider `COc1ccc(S(=O)(=O)N(CCc2ccccc2)CC(=O)Nc2ccc3c(c2)OCO3)cc1`, for which the displacement turned out to be 14.5%.

With `COc1cc(C(=O)Nc2ccc(N(C)C)cc2)c([N+](=O)[O-])cc1OC`, the displacement was found to be 12.2%.

Turning to `CN(C)c1ccc(P(=O)(c2ccc(N(C)C)cc2)c2ccc(N(C)C)cc2)cc1`, the displacement stood at 20.4%.

As for `O=C(NCCOc1ccccc1F)c1ccc(CSc2ccc(Cl)cc2)cc1`, the displacement is -5%.

`COc1ccc(CNC(=O)c2cccc([N+](=O)[O-])c2)cc1`: the displacement was -7.5%.

Take `COC(=O)C1=C(C)N(C)C(C)=C(C(=O)OC)C1c1cccc(OCc2ccccc2)c1`: the displacement was 10.8%.

On to `C(/C=C/c1ccco1)=N/N1CCN(c2ccccc2)CC1`, for which the displacement is 1.1%.

As to `O=C(COc1ccc(-c2ccccc2)cc1)NCc1ccco1`, the displacement came to 6.6%.

With `COc1ccccc1OCc1cc(C(=O)O)oc1C`, the displacement was 9.4%.

For `COc1ccc(N2C(=O)/C(=C\c3cc(OC)ccc3O)SC2=S)cc1`, the displacement was found to be 6.4%.

In the case of `CCOC(=O)c1ccc(-n2c(CN3C(=O)c4ccccc4C3=O)nc3ccccc3c2=O)cc1`, the displacement was determined as 13.8%.

Turning to `CCCOc1ccccc1C1CC(=O)Nc2c1ccc1ccccc21` (configuration not stated), the displacement was -7.2%.

As to `COc1cc(OC)cc(C(=O)N/N=C(\C)CC(=O)Nc2ccc(Br)cc2)c1`, the displacement was -1.4%.

Turning to `COc1cc(CNc2ccc(Br)cc2C)cc(OC)c1OC`, the displacement was 13.2%.

Consider `COc1ccc(NC(=O)c2nn3c(c2Br)NC(c2cccs2)CC3C(F)(F)F)cc1OC` (configuration not stated), for which the displacement was -4.6%.

In the case of `COc1cc(C=NN2CCN(c3ccc(Cl)cc3)CC2)ccc1OCc1ccccc1`, the displacement is -15.6%.

On to `CN(C)CCOC(=O)C12CCC3CC(CC(C3)C1)C2`, for which the displacement was determined as 11.3%.

On to `COc1ccc(C(NC(=O)Cc2ccccc2)NC(=O)Cc2ccccc2)cc1OC`, for which the displacement was 2.8%.

`COC(=O)c1ccc(-c2ccc(C=C3C(=O)N(C)C(=O)N(C)C3=O)o2)cc1`: the displacement came to 8%.

On to `Fc1ccc(-c2nc(-c3ccc(C(F)(F)F)cc3)no2)cc1`, for which the displacement was -1.2%.

With `CC(=O)c1ccc(NC(=O)c2ccc(-c3ccc(Cl)cc3Cl)o2)cc1`, the displacement is -1.3%.

As to `Cc1ccc(C(C)C)c(OCC(=O)N/N=C/c2ccncc2)c1`, the displacement is -32.2%.

Take `COc1ccc(CCNS(=O)(=O)c2ccccc2[N+](=O)[O-])cc1OC`: the displacement is -6.5%.

For the molecule `COc1ccc(C(=O)Nc2ccccc2C(=O)NC2CCCCC2)cc1`, the displacement is 1%.

Regarding `COc1ccc(CC2S/C(=N\N=C\c3ccc(O)cc3)NC2=O)cc1` (configuration not stated), the displacement was -19.1%.

As for `O=C(Nc1ccc(Cl)c(Cl)c1)Nc1nnc(Cc2ccccc2)s1`, the displacement came to 11%.

For `CCCCOc1cccc(C(=O)Nc2ccc([N+](=O)[O-])cc2OC)c1`, the displacement came out at 6.5%.

Consider `COc1ccc(C(=O)C=C(Cl)Cl)cc1`, for which the displacement is 1.2%.

For `Cc1cccnc1N1C(=O)C2C3c4ccccc4C(c4ccccc43)C2C1=O` (configuration not stated), the displacement amounted to 10.1%.

As to `CCOc1ccc(C2C(C(=O)OC)=C(C)NC(C)=C2C(=O)OC)cc1OC`, the displacement was -4.5%.

As to `COc1cc2c(cc1NS(=O)(=O)c1ccc3ccccc3c1)oc1ccccc12`, the displacement is 37.9%.

In the case of `O=C(Nc1ncccc1Cl)C1CC1c1ccccc1` (configuration not stated), the displacement was -6%.

`O=C1C2C3c4ccccc4C(c4ccccc43)C2C(=O)N1Cc1ccc(F)cc1` (configuration not stated): the displacement was -11.9%.

For `O=C(O)c1cccc(NS(=O)(=O)c2cccc(S(=O)(=O)c3ccc(Br)cc3)c2)c1`, the displacement was -5.9%.

For `COc1ccc2c(c1)C1=NN(/C(C)=C/C(C)=O)C(c3ccc(F)cc3)C1CC2` (configuration not stated), the displacement came out at 9.3%.

Turning to `COC(=O)C12CCC3(SCCS3)C(C(=O)OC)(CCC13SCCS3)C2`, the displacement was determined as 3.6%.

For `COc1c(OC(C)=O)ccc(/C=N\NC(=O)COc2ccc(C)cc2)c1[N+](=O)[O-]`, the displacement came to 9.4%.

With `O=C(c1ccco1)N1CCN(C(=O)c2cccs2)CC1`, the displacement was -0.4%.

As for `O=C(/C=C/c1cccc(C(F)(F)F)c1)Nc1ccccc1Cl`, the displacement is 7%.

For the molecule `COc1ccc(C(=O)Nc2ccccc2)cc1NC(=O)COc1ccc(F)cc1`, the displacement came to 2.3%.

On to `Cc1ccc(-c2cc(C(=O)NC(C)C)c3ccccc3n2)cc1`, for which the displacement was found to be 6.6%.

`COc1cccc(CN2CCN(C(=O)c3cccc(Cl)c3)CC2)c1`: the displacement is 3.6%.

With `O=CN1CCN(C(=O)c2ccc(C#Cc3ccccc3)cc2)CC1`, the displacement was -5.1%.

As for `Cc1cc(C)n(C(=O)CNC(=O)c2ccc(Cl)cc2)n1`, the displacement came out at 15.9%.

On to `C=CCO/N=C(\CCC)C1=C(N2CCCC2)CC(C)(C)CC1=O`, for which the displacement is -1.5%.

Regarding `COc1cc(/C=C2/SC(=S)N(c3c(C)n(C)n(-c4ccccc4)c3=O)C2=O)c([N+](=O)[O-])cc1OC`, the displacement stood at 61.3%.

Consider `O=C(Nc1ccccc1C(=O)Nc1ccccc1)c1ccc(F)cc1`, for which the displacement was -7.3%.

With `Cc1cc(C)cc(N(CC(=O)O)S(=O)(=O)c2ccccc2)c1`, the displacement is -0.2%.

With `CC(C)C(NC(=O)C12CC3CC(CC(C3)C1)C2)C(=O)N/N=C/c1ccccc1C(F)(F)F` (configuration not stated), the displacement was -11.3%.

In the case of `CC(=O)N1CCN(c2nc(OC(C(F)(F)F)C(F)(F)F)nc(N(c3ccccc3)c3ccccc3)n2)CC1`, the displacement was determined as 8.1%.

On to `O=C(Nc1ccc2c(c1)OCO2)c1ccc(C#CC2(O)CCCCC2)cc1`, for which the displacement was -1.9%.

Consider `Cc1cccc(NC(=O)c2cnccn2)c1C`, for which the displacement is -0.8%.

`Nc1nonc1-c1nc2ccccc2[nH]1`: the displacement was found to be 11%.

Turning to `O=C(c1ccc([N+](=O)[O-])cc1Cl)N1CCC(Cc2ccccc2)CC1`, the displacement is -10.9%.

Turning to `CCn1c(C)nc2c(Br)c(O)ccc21`, the displacement is -13.1%.

Consider `CCN1C(=O)/C(=C/c2ccc(-c3ccccc3[N+](=O)[O-])o2)SC1=S`, for which the displacement was found to be 0.8%.

Take `O=C(NNC(=O)c1cccc(Cl)c1)C(=O)N1CCCCC1`: the displacement was -11.5%.

Consider `Cn1c(SCC(=O)N/N=C/c2ccco2)nc2ccccc21`, for which the displacement was -7.4%.

`N#CC1=C(N)Oc2c(sc3ccccc23)C1c1ccc(Br)o1` (configuration not stated): the displacement was 11.8%.

Consider `O=C1CC(N2CCSCC2)C(=O)N1c1ccc(F)cc1` (configuration not stated), for which the displacement came out at 7.1%.

With `Cn1c(=O)c2c(nc(NCCO)n2C)n(C)c1=O`, the displacement was 0.2%.

On to `COCCOC(=O)C1=C(C)NC(C)=C(C(=O)OCCOC)C1c1cn(-c2ccccc2)nc1-c1cccc([N+](=O)[O-])c1`, for which the displacement came out at 5.4%.

For the molecule `CCOc1cccc(C(=O)Nc2ccccc2-c2ccccc2)c1`, the displacement amounted to 3.2%.

Take `CN(C)c1ccc(/C=C/C(=O)/C=C/c2ccc(N(C)C)cc2)cc1`: the displacement is -13.3%.

Consider `CCc1ccccc1NC(=O)CN(c1ccc(OC)cc1)S(C)(=O)=O`, for which the displacement is -0.6%.

As for `COc1cc(OC)c(C=C2C(=O)NC(=S)NC2=O)cc1Br`, the displacement came out at 1.7%.

Consider `COC(=O)c1c(NC(=O)c2cccc(C)c2)sc(Cc2ccccc2)c1C`, for which the displacement is -4.2%.

With `CCOC(=O)C1=CS/C(=C2/C(=S)C(C)(C)Nc3ccc(C)cc32)S1`, the displacement was 13%.

`Cc1cccc(-n2c(C)cc(/C=N/NC(N)=S)c2C)c1`: the displacement was -25.5%.

On to `Cc1cccc(N2C(=O)/C(=C/c3ccccc3[N+](=O)[O-])SC2=S)c1`, for which the displacement amounted to 9.9%.

As for `CCOc1ccccc1NC(=O)c1c(NC(=O)c2cccs2)sc2c1CCC2`, the displacement was 3%.

Turning to `Cc1cc(C)n(/N=C/c2c[nH]c3ccccc23)c(=O)c1C#N`, the displacement turned out to be 3%.

As for `CC(=O)N1CCN(c2ccc(NC(=O)c3ccc(Cl)cc3)cc2)CC1`, the displacement stood at 11.6%.

Regarding `CCOC(=O)c1[nH]nc2c1C(=O)N(c1ccc(Br)cc1)C2=O`, the displacement was -7%.

As for `Cc1ccc(C(=O)Nc2nnc(C(C)C)s2)cc1`, the displacement was -4.7%.

Regarding `CC1CC(C)CN(C(=O)c2ccc(Cl)cc2)C1` (configuration not stated), the displacement amounted to 13.7%.

Turning to `C=CCNC(=O)Nc1ccc2nccnc2c1`, the displacement stood at 8.7%.

On to `CCN(CC)S(=O)(=O)c1ccc(NC(=O)c2ccc(OC)c(I)c2)cc1`, for which the displacement is -12.2%.

In the case of `O=C1NC(c2ccc([N+](=O)[O-])cc2)Nc2c1sc(=S)n2-c1ccccc1` (configuration not stated), the displacement worked out at 7.7%.

Regarding `Cc1cccc(OCC(=O)O/N=C(\N)c2cccnc2)c1`, the displacement came out at 4.1%.

As for `O=C(NCCO)C(=O)Nc1cccc(F)c1`, the displacement amounted to 3.4%.

Turning to `O=C(O)c1ccccc1NC1=C(Cl)C(=O)N(c2ccccc2Cl)C1=O`, the displacement stood at 9.6%.
